Experimental data reported in the supplement of paper PMC4466236.
The full ranking holds about 33,000 sequences; the median of “E-score (dimensionless, -0.5 to 0.5)” is about -0.058, and the highest 2% start at about 0.35. This is one part of the list.

System: MvaT
Assay: PBM 8-mer E-score (mean of HK and ME arrays) (E-score (dimensionless, -0.5 to 0.5)); higher = stronger relative binding preference; most listed sequences are background and not binding sites
How it was run: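 Full-length P. aeruginosa MvaT carrying an N-terminal glutathione S-transferase tag was tested by protein binding microarray following a previously described protocol. Two universal double-stranded 60-mer arrays, ME and HK, were used, each with a constant 25-mer primer region and a variable 35-mer region covering all 8-mers. The rank-based E-score is the mean of the two arrays, parsed with a custom script. Its range runs from -0.5 to 0.5 for each 8-mer.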

| Sequence | PBM 8-mer E-score |
| --- | --- |
| CGCTTACG | -0.148 |
| GGATCTAA | -0.0946 |
| TAGCCAAA | -0.0557 |
| ATATTGCA | 0.268 |
| TGACCCAA | -0.0751 |
| CTCTAGTC | -0.0615 |
| ATTATACC | 0.337 |
| AACACACT | 0.117 |
| CCTAGCGC | -0.321 |
| CAACCGTC | -0.0461 |
| ACTTTCAC | 0.216 |
| GCCTTCAA | -0.217 |
| ATATCGCC | 0.101 |
| AGTGCATG | -0.0179 |
| ACAAAGCT | -0.142 |
| AAAGTACG | 0.156 |
| GTCATACA | 0.0415 |
| GTTTGATA | 0.138 |
| CGCAATTA | 0.211 |
| AATAGTAG | 0.294 |
| ACACATTA | 0.355 |
| ACGCATAA | 0.0642 |
| GGCCCTCA | -0.238 |
| AGCCCTGG | -0.299 |
| GCCACTAC | -0.0236 |

| Sequence | PBM 8-mer E-score |
| --- | --- |
| GCAACGGC | -0.194 |
| ATACGGGG | -0.188 |
| CTTTCGAC | -0.154 |
| GGCACGTA | -0.00829 |
| AGTCGGAG | -0.154 |
| AGGGGGTA | -0.342 |
| AGCTGGCA | -0.268 |
| CCTTGCGA | -0.186 |
| AAACTGGC | -0.0558 |
| ATCAGAAC | -0.0171 |
| CAAAGGAA | -0.146 |
| AAGTCTAT | 0.199 |
| CATTTGGG | -0.00258 |
| CTGGGGTC | -0.186 |
| CGCTATTA | 0.18 |
| AGGTATCG | -0.114 |
| CGTTGTAG | -0.0357 |
| AACGCTTA | 0.0532 |
| TATGCGAA | 0.18 |
| AAGAGGTA | -0.0508 |
| GACATCTC | -0.112 |
| ACCGTCAC | -0.136 |
| CTTAGGCA | -0.131 |
| CATGTAAC | 0.227 |
| TAGAGTGA | -0.00569 |

| Sequence | PBM 8-mer E-score |
| --- | --- |
| CCCCACTC | -0.246 |
| AGCTGGCG | -0.221 |
| ACCTGCTC | -0.197 |
| ACCAGATA | 0.1 |
| AGACTAAT | 0.203 |
| CACCAATA | 0.233 |
| CGCACGTC | -0.129 |
| GCAATTCA | 0.184 |
| GAGCCGTA | -0.0952 |
| CGACAGAC | -0.0175 |
| CGGAGGCA | -0.153 |
| GTAACTAC | 0.0808 |
| AAATCTCT | -0.116 |
| AACCACAA | 0.0891 |
| GCGCCTTA | -0.0712 |
| CGAAGCCA | -0.119 |
| AGGTACAA | 0.0242 |
| ATTCCGAC | 0.00924 |
| AACTGAGG | 0.0319 |
| GGTGAACA | 0.119 |
| AATGACTG | 0.06 |
| AGCAATTA | 0.231 |
| CCTGGACG | -0.314 |
| AACTAGGT | 0.0582 |
| ACGTTCCA | -0.0647 |

| Sequence | PBM 8-mer E-score |
| --- | --- |
| ACGCAATC | -0.159 |
| CTTGGCTA | -0.0478 |
| ATGCCGAA | 0.0569 |
| GAAGACGA | -0.0611 |
| ACGTTGCA | 0.0949 |
| ATTCGAAT | 0.218 |
| CCACCCTC | -0.162 |
| CCCAGGAA | -0.0332 |
| GACCCCGC | -0.281 |
| ACTATTTG | 0.258 |
| AGTGGACG | -0.165 |
| AACCTGTA | -0.0744 |
| CTCATCTC | -0.257 |
| GCGCGCAC | -0.165 |
| CGGTGACG | -0.135 |
| GGCATGAC | -0.333 |
| TACTAATA | 0.357 |
| ATAACTAT | 0.388 |
| CGTGTGTA | -0.0605 |
| CACTTTTA | 0.209 |
| AATCCGGA | -0.0456 |
| AATGCGTG | 0.0979 |
| CGCCTCAA | -0.103 |
| ACGCCGCC | -0.222 |
| AGTGAGTA | 0.0523 |

| Sequence | PBM 8-mer E-score |
| --- | --- |
| AACGCGAA | 0.0487 |
| GTCGAGTA | 0.00658 |
| GTTAGACA | -0.00485 |
| AAAAAGGT | -0.0123 |
| AAGTAACA | 0.288 |
| GCCTTGAC | -0.164 |
| CCGCTGAA | -0.0883 |
| CCTGCTCA | -0.19 |
| ACTACGAG | 0.0492 |
| ACTCATAC | -0.0213 |
| CTTAGACA | 0.0224 |
| AAGGTCTA | -0.222 |
| AATCGCAT | -0.00561 |
| ATTGAAGC | 0.0357 |
| TATTTGAA | 0.338 |
| CCAACACA | 0.0511 |
| GCCCAGAA | -0.0885 |
| CCTTAGCG | -0.162 |
| CTAGTAGC | -0.151 |
| CCAGCGGC | -0.283 |
| ACTTTACT | 0.246 |
| ACGGAGCA | -0.148 |
| GAGATCGA | -0.162 |
| GCTGACCC | -0.258 |
| ACGATCAA | 0.0196 |

| Sequence | PBM 8-mer E-score |
| --- | --- |
| CAACTGGC | -0.0893 |
| CCTCCACC | -0.303 |
| TAGTAGAA | 0.131 |
| ATTGTAGA | 0.16 |
| GGGCTTAA | -0.0336 |
| GCGGCGAA | -0.126 |
| AGTGGTTA | 0.0672 |
| AGGGTAGG | -0.164 |
| CCATACGC | -0.202 |
| AAGCCTTA | 0.108 |
| GTCGTGCA | -0.0451 |
| AAAGACTG | 0.0852 |
| AGTTATTC | 0.248 |
| ATACAGTG | 0.112 |
| ACTTGGTA | -0.109 |
| CTGGGGAC | -0.264 |
| GGGGTACC | -0.321 |
| ATTTACCG | 0.212 |
| GTCCGGTA | -0.22 |
| CGTATTTC | 0.0305 |
| AACCTCAA | -0.036 |
| CATATGCG | -0.024 |
| GGCTCTTA | 0.0265 |
| GTACCAAA | -2.5e-05 |
| GGGTTGTA | 0.0806 |

| Sequence | PBM 8-mer E-score |
| --- | --- |
| CGAGGACG | -0.307 |
| ATGGATCC | -0.104 |
| GATTCGAC | -0.0533 |
| ATGGGGTA | 0.0903 |
| TCGGAAGA | 0.0441 |
| TCCATCGA | -0.0223 |
| TGCGCGAA | 0.000508 |
| CAATACCA | 0.216 |
| TCTACTAA | 0.135 |
| GGTAGAGA | -0.0761 |
| AAATCGCG | 0.165 |
| CTCGCTAC | -0.213 |
| GATAGTGA | 0.154 |
| CCAAGGGG | -0.373 |
| AAGATGAG | 0.0205 |
| GAGCTAGC | -0.261 |
| AAGAGCAC | -0.0893 |
| CCACGCGA | -0.2 |
| GAGCCATA | -0.0175 |
| AAACCATA | 0.251 |
| CGTGTCGC | -0.162 |
| CACACTGG | -0.235 |
| AGAAGCGA | -0.162 |
| CAATCAGA | -0.124 |
| ACAGTCAG | -0.156 |

| Sequence | PBM 8-mer E-score |
| --- | --- |
| ACAATTAA | 0.347 |
| CACCAACC | -0.196 |
| CATGGATA | 0.115 |
| GCGAAAAC | 0.058 |
| AACACTTA | 0.326 |
| AATAACGT | 0.291 |
| CGTTAACA | 0.114 |
| CGGGAGTC | -0.176 |
| ATAACAGG | 0.162 |
| AGTGATAG | 0.119 |
| TGCACGAA | -0.107 |
| TCAAAAAA | 0.132 |
| CCAGCCGG | -0.326 |
| TCAGTGGA | -0.0335 |
| ACAAACGA | 0.0618 |
| ATCTGCAT | 0.0581 |
| ACTGTTAT | 0.306 |
| AAGTAACT | 0.301 |
| CGAAATCA | -0.0764 |
| CGAGAAGA | -0.142 |
| CGAGTTGC | 0.0126 |
| ATCGACCG | -0.104 |
| GCCTCACA | -0.142 |
| ATCGCGAA | 0.045 |
| AAGGCGAT | -0.214 |

| Sequence | PBM 8-mer E-score |
| --- | --- |
| CTGGGCGA | -0.222 |
| GATAATCA | 0.176 |
| ATGTGAAG | 0.122 |
| TGTAGTAA | 0.224 |
| AATTGAAA | 0.299 |
| CATCATTC | -0.0308 |
| CCAGAATC | -0.0382 |
| GCTCTAAC | -0.0464 |
| ATTCTGAC | -0.00836 |
| CACTGAGG | -0.187 |
| CATGGGGC | -0.232 |
| GCAGCCAA | -0.0758 |
| CAGAAGTA | 0.128 |
| CTCGGCTC | -0.287 |
| TCAACCCA | -0.118 |
| AGGTAAGC | -0.135 |
| ATGAGTGA | 0.00889 |
| CCGGCCAA | -0.141 |
| GATTTAAC | 0.245 |
